# Hit rate of the full screen: of about 360,000 compounds, about 11,000 (3.1%) were called active. This list was built around the results that the source calls inconclusive (neither active nor inactive); the mix of calls is not that of the screen. The call rests on the fitted dose curve; in most records, active means well fitted inhibition curve with a large enough effect; inconclusive means small, poorly fitted or top-dose-only effect; inactive means no such curve, though single readings can be large or run the other way. Potencies of inconclusive entries are left out as doubtful fits.
# Molecular target: Schistosoma mansoni thioredoxin glutathione reductase (TGR) (UniProt Q962Y6)
# Experiment: qHTS Assay for the Inhibitors of Schistosoma Mansoni Peroxiredoxins; further: nearly all actives have a fitted effect of over 60% in size
# Settings: purified TGR, DTNB reduction, TNB absorbance 405 nm; activity change, negative = inhibition: at 114 µM (top of the series) unless noted
# Method in brief: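 TGR 20 nM + NADPH 100 uM (dispensed conc.), cpd preinc 15 min RT; start with NADPH (500 uM addition) then DTNB (15 mM addition). Kinetic TNB absorbance, 405 nm filter. Four-parameter Hill fit across titration.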
# On the % scale 0 is the no-effect control and ±100 the full control effect; potency means the concentration at half of the fitted maximal effect; tags describe the fitted curve by direction and shape.
SMILES,"activity change, negative = inhibition",Potency
O=C(N/N=C/c1cccnc1)c1cccc(NC(=O)c2cccc(Br)c2)c1,inactive: 0.236%,
COc1ccc(NC(=S)N(CCC(C)C)C2CCN(C(C)C)CC2)cc1Cl,inactive: -20.4%,
Cc1cc([N+](=O)[O-])nn1CC(=O)NCc1ccc(Cl)cc1,,"inconclusive [inhibitor, single point]"
CCCCOC(=O)CSc1nc(N)c(C#N)c(-c2ccc(OC)cc2)c1C#N,,"inconclusive [inhibitor, full curve, poor fit]"
Cc1nnc(SCCn2c(N3CCN(C)CC3)nc3c2c(=O)[nH]c(=O)n3C)s1,,"inconclusive [inhibitor, single point]"
O=C1C2CC=C(Cl)CC2C(=O)N1CC1Cc2ccccc2CO1 (stereo not given),,active: 44.7 µM
Cc1cc(/C=N/NC(=O)C(=O)NCc2ccccn2)c(C)n1-c1ccccc1,inactive: -1.1%,
Cn1c(=O)c([N+](=O)[O-])c(NCc2ccc3c(c2)OCO3)c2ccccc21,inactive: -0.108%,
Fc1ccc(-n2ncc3c(SCc4cccnc4)ncnc32)cc1,inactive: 3.32%,
COc1ccc(NC(=O)c2oc3ccccc3c2NC(=O)COc2ccccc2OC)c(OC)c1,,"inconclusive [inhibitor, partial curve]"
CCCCn1c(O)c(C(CC)=NCc2cc(OC)cc(OC)c2)c(=O)[nH]c1=O,,"inconclusive [inhibitor, single point]"
O=C1NC(=O)N(c2ccc3c(c2)OCO3)C(=O)/C1=C\c1ccc(-c2ccccc2C(=O)O)o1,,"inconclusive [inhibitor, full curve, poor fit]"
COc1ccc2[nH]c3c(c2c1)CCNC3,,"inconclusive [inhibitor, partial curve]"
O=C(CSc1ccsc1[N+](=O)[O-])N1CCCCC1,,active: 31.6 µM
Cc1ccc(C(=O)NNC(=O)c2n[nH]c(=O)c3ccccc23)cc1C,inactive: -19.4%,
Cc1noc(C)c1C(=O)Nc1ccccc1N1CCCC1,inactive: 0.902%,
CCOc1ccc(C(C)=O)cc1COC(=O)CN1C(=O)NC2(CCCC2)C1=O,,active: 10 µM
O=C(O)C[C@@H]1C(=O)O[C@@H]2C(COC(=O)c3cc(O)c(O)c(O)c3)O[C@@H](OC(=O)c3cc(O)c(O)c(O)c3)[C@@H](OC(=O)c3cc(O)c(O)c4c3[C@H]1[C@H](O)C(=O)O4)[C@H]2OC(=O)c1cc(O)c(O)c(O)c1 (stereo not given in full),,active: 15.8 µM
CN(Cc1ccco1)Cc1ccc(O)c2ncccc12,,active: 0.708 µM
COc1cc(/C=C/C(=O)c2ccc3c(c2)OCO3)cc(Cl)c1O,,"inconclusive [inhibitor, partial curve]"

# Reference: PubChem BioAssay AID485364 (National Center for Advancing Translational Sciences (NCATS), 2010)
